These results are taken from ChEMBL document CHEMBL4888484, “Replenishing the malaria drug discovery pipeline: Screening and hit evaluation of the MMV Hit Generation Library 1 (HGL1) against asexual blood stage Plasmodium falciparum ,using a nano luciferase reporter read-out” (2022).

The campaign covered roughly 150,000 compounds. About 540 (0.36%) showed an effect of 50% or more. The list shows a part of the results.

This assay deals with Plasmodium falciparum. Nature of the assay: Primary screen in NF54 nanoGlo assay, in single point, at 2uM, 72h; a lower Z score goes with more inhibition. The following applies: timepoint 72 hour. The format is functional, Erythrocyte.
As a reminder, the % Inhibition is the change of the read-out against control, counted positive when it falls. As to `CC(C)n1ccc(CN2C(=O)C[C@H](C)C2=O)n1`, the “% Inhibition” value is listed as -6% and the Z score is 0.51.
The matching figures for `CCc1c(C(C)(C)C)noc1NC(=O)[C@H]1CCCO1`: -15% and 2.48.
The matching figures for `O=C(c1ccc(N2C(=O)C3C4CCC(C4)C3C2=O)cc1)N1CCCCC1` (stereo not drawn): -11% and 1.48.
The matching figures for `COc1ccc(Nc2nc(-c3cc(C(N)=O)oc3C)cs2)cn1`: -8% and 0.9.
Regarding `CC(=O)NCCNC(=O)c1cc(NCc2ccc3c(c2)OCO3)cc(S(=O)(=O)N(C)C)c1`, the “% Inhibition” value is listed as -2% and the Z score was determined as 0.24.
The matching figures for `COCCNC(=O)CCNc1ccc(Br)cn1`: -6% and 0.95.
The matching figures for `CCN(Cc1cn(C)nn1)Cc1cccc(OC)c1Cl`: 23% and -2.92.
The matching figures for `O=C(CCc1nnc[nH]1)NC1(c2ccc(F)cc2F)CCCCC1`: -9% and 1.15.
`Cc1ccc(-n2nc(C)c(CC(=O)N3CCCC(C(C)N)C3)c2C)cc1Cl` (stereo not drawn): the “% Inhibition” value is reported as -11% and the Z score is recorded as 1.08.
The matching figures for `N#CCCN1CCN(C(=O)c2cn3ccnc(-c4ccccc4)c3n2)CC1`: 34% and -3.87.
The matching figures for `O=C(NCCc1c[nH]c2ccc(Br)cc12)c1cc[nH]n1`: -16% and 2.61.
The matching figures for `CCc1nccn1C[C@H](C)NCc1ccc(N2CCCC2=O)cc1`: -7% and 0.62.
As to `O=C(CN1C(=O)COc2ccc(F)cc21)NCc1ccc2c(c1)OCO2`, the “% Inhibition” value was determined as 9% and the Z score is reported as -1.08.
The matching figures for `O=C([C@@H]1CCCO1)N1CCN(C(c2ccccc2)c2ccccc2)CC1`: 4% and -0.55.
The matching figures for `C[C@H](NC(=O)COc1ccc(-c2ccccc2)cc1CN(C)C)c1ccco1`: -4% and 0.64.
The matching figures for `COc1ccc(CCC(=O)N(CCS(=O)(=O)N2CCNCC2)C(C)C)cc1`: 0% and -0.05.
Regarding `CN(Cc1nnc[nH]1)C(=O)C1CCC(NC(=O)CC2CCCCC2)CC1` (stereo not drawn), the “% Inhibition” value is 1% and the Z score was -0.1.
For `CC(C)(C)c1cc(NC(=O)CN2CCNC(=O)CC2)on1`, the “% Inhibition” value is -33% and the Z score is given as 3.87.
Turning to `Cc1ccc2c(c1)CCCN2C(=O)CN1CC[C@](C)(O)[C@@H](O)C1`, the “% Inhibition” value was 1% and the Z score is -0.27.
With `O=C([C@H]1CN(S(=O)(=O)c2cccs2)CC12CCOCC2)N1CCCCC1`, the “% Inhibition” value was -5% and the Z score is 0.99.
The matching figures for `COc1ccccc1CNC(=O)CN1CCn2nc(C)cc2C1`: -12% and 1.91.
The matching figures for `C[C@]1(O)CCN(C(=O)c2ccc(O)cc2)C[C@H]1Cc1ccccc1`: -3% and 0.37.
The matching figures for `CC[C@H](O)c1cc2n(n1)CCN(c1cc(OC)nc(N)n1)C2`: -7% and 1.
`CCCc1nnnn1Cc1nc(C)c(C)s1`: the “% Inhibition” value is listed as 6% and the Z score is listed as -1.1.
The matching figures for `CN1CCN([C@H]2CN(C(=O)c3ccc(Cl)cc3O)C[C@@H]2O)CC1`: -16% and 3.13.
The matching figures for `CC(C)CN(Cc1c(-c2ccccc2)nn(C)c1N(C)C)C(=O)NC(C)C`: -5% and 1.04.
On to `COc1ccc(-c2nn(CN(C)Cc3ccc(Cl)cc3)c(=S)o2)cc1OC`, for which the “% Inhibition” value was -8% and the Z score is on record as 1.09.
The matching figures for `C[C@H](OCC1CC1)C(=O)N(Cc1ccc[nH]1)c1ccc(N(C)C)cc1`: -10% and 1.2.
The matching figures for `Cc1cccc(CN(CCc2c[nH]c3ccccc23)Cc2nc(C(=O)N(C)Cc3ccccc3)co2)c1`: -13% and 2.16.
As for `CC(C)Oc1cc(N[C@H]2C[C@H](c3nnc(CN(C)C)n3C)C2)nc(N)n1`, the “% Inhibition” value is reported as -5% and the Z score is listed as 0.47.
The matching figures for `Cc1csc(NC(=O)C2CCN(c3cc(C4CC4)ncn3)CC2)n1`: -10% and 1.91.
The matching figures for `Cc1nc(CN2CC[S@@+]([O-])CC2(C)C)c(C)s1`: -2% and 0.29.
`C[C@@H](CNC(=O)N1CC(S(C)(=O)=O)C1)COCc1ccccc1`: the “% Inhibition” value is -1% and the Z score worked out at 0.11.
The matching figures for `Cc1nnc(COc2ccc(NC(=O)Cc3c(C)noc3C)cc2)o1`: -8% and 1.48.
The matching figures for `CCC[C@H]1CCCN(C(=O)c2c(C)nsc2NC)CC1`: 7% and -0.62.
The matching figures for `COC(=O)c1cnc(N2CCOCC2)nc1-c1cnc(N2CCCCC2)nc1C`: -3% and 0.4.
`Cc1nc(C)c(C(=O)NC2(Cc3cccc(F)c3)CCC2)o1`: the “% Inhibition” value is -18% and the Z score came out at 2.29.
Consider `CCN1CCN(C(=O)c2cc3cc(NC(=O)c4ccccc4Cl)ccc3n2Cc2cccc(F)c2)CC1`, for which the “% Inhibition” value amounted to 2% and the Z score is -0.26.
The matching figures for `CCOc1nc2ccccc2nc1N1CCC[C@H](C(=O)Nc2ccc(F)cc2C)C1`: -9% and 0.89.
The matching figures for `O=C(c1ccc(F)cc1)N1CCOc2ccc(CN3CCCC3)cc2C1`: 3% and -0.52.
On to `COc1ccc(C)cc1NC(=O)C[C@H]1COc2ccccc2O1`, for which the “% Inhibition” value turned out to be 9% and the Z score is listed as -1.44.
The matching figures for `C=C(C)CN[C@@](C)(C(N)=O)c1cccc(Cl)c1`: -13% and 1.75.
The matching figures for `O=C(c1cccc(OC(F)F)c1)N1CCOC[C@](O)(CN2CCCC2)C1`: -7% and 1.46.
The matching figures for `Cc1cc(N2CC[C@H](N3CCN(C)CC3)[C@H](CCC(=O)O)C2)nc2ccccc12`: 1% and -0.13.
On to `CC[C@H](NC(=O)c1ccn(C(F)F)n1)c1cccc(C)n1`, for which the “% Inhibition” value is -1% and the Z score is recorded as 0.15.
The matching figures for `CCc1cc(C(=O)NCc2c(C)cc(C)[nH]c2=O)[nH]n1`: -10% and 1.85.
The matching figures for `CCc1ccc(OCC(=O)Nc2cc(C(C)C)ccc2O)c(-n2cnnc2)c1`: 1% and -0.1.
The matching figures for `Cc1oc(-c2cccc(F)c2F)nc1CN(C)C[C@H]1CCCNC1`: 1% and -0.26.
Turning to `CNC(N)=NCCc1ccc(OC(F)F)cc1`, the “% Inhibition” value is -10% and the Z score was 1.81.
The matching figures for `Cc1ccn(-c2ccc(C(=O)NCCc3ccc(Cl)cc3)cn2)n1`: -9% and 1.08.
The matching figures for `COc1ccc(C(=O)c2sc(Nc3ccc4c(c3)OCCO4)nc2N)cc1`: -15% and 2.27.
The matching figures for `Cc1cc(NCc2ccc(C(=O)O)cc2)nc(C2CC2)n1`: -13% and 1.55.
`CC(C)OCCC(=O)N[C@@H](C)c1csc(C(C)C)n1`: the “% Inhibition” value is -7% and the Z score is 0.73.
On to `COCC(=O)Nc1cc(C(=O)N(C)CCc2cn[nH]c2)c2c(c1)ncn2Cc1ccc(F)cc1`, for which the “% Inhibition” value is reported as -7% and the Z score is listed as 1.
In the case of `CCN(Cc1cncnc1)Cc1ccc2[nH]ccc2c1`, the “% Inhibition” value is given as -10% and the Z score came out at 1.26.
As for `CCC(CC)CNc1ncc(C(C)(C)C(=O)O)c(N2CCOCC2)n1`, the “% Inhibition” value was -10% and the Z score is 1.99.
The matching figures for `Nc1nc(N2CCOCC2)[nH]c(=O)c1Br`: 27% and -3.04.
The matching figures for `C[C@@H](c1cccnc1)N(C)Cc1cc(C#N)cs1`: 1% and -0.13.
The matching figures for `CC(C)C(=O)Nc1ccc2nc(N3CCN(CC(=O)N(C)C)CC3)cc(C(=O)O)c2c1`: -25% and 2.95.
On to `COc1cc(C)c(NC(=O)NCc2ccc3occc3c2)c(C)c1C`, for which the “% Inhibition” value is reported as -13% and the Z score was 2.83.
As to `FC(F)(F)CN1CCN(Cc2cc(CN3CCCC3)cs2)CC1`, the “% Inhibition” value is on record as -10% and the Z score amounted to 1.88.
The matching figures for `CCN1C(=O)COc2ccc(NC(=O)N3CCCCC[C@H]3c3ccco3)cc21`: -7% and 1.16.
For the compound `CCCc1nc(Cn2c(C)ncc(-c3nc(C)cs3)c2=O)no1`, the “% Inhibition” value stood at 24% and the Z score is listed as -3.01.
The matching figures for `O=C(NCc1ccc(F)cc1F)c1nn(-c2ccccc2)c2ccccc2c1=O`: -4% and 0.55.
The matching figures for `Cc1nn(CC(=O)N2C[C@H]3COCC[C@@]3(O)[C@@H]3COCC[C@@H]32)cc1Cl`: -5% and 0.48.
The matching figures for `CC(C)(C)OC(=O)N1CCN(Cc2nnnn2-c2ccccc2)C2(CCCCC2)C1`: 1% and -0.19.
For the compound `Cc1cccc(-c2noc(N3CCOCC3)c2CN(Cc2ccc(F)cc2)C(=O)c2ccccc2F)c1`, the “% Inhibition” value is recorded as 7% and the Z score was -0.9.
On to `COC(=O)c1ccc(NC(=O)N2CCC[C@H](CN3CCC(C)CC3)CC2)cc1`, for which the “% Inhibition” value is reported as 6% and the Z score is given as -0.93.
The matching figures for `COc1ccc(NC(=O)Cn2c(C)cc(C)c(-c3nc(-c4ccc5c(c4)OCO5)no3)c2=O)cc1OC`: -10% and 1.4.
The matching figures for `COc1ccc(CCNC(=O)Cn2ccnc2)cc1OC`: -9% and 1.66.
The matching figures for `c1ccn2c(-c3noc([C@H]4CCn5c(cnc5C5CCCCC5)C4)n3)cnc2c1`: -16% and 2.94.
For `C[C@H]1Cc2cc(NC(=O)c3ccc(C(=O)N4CCOCC4)cc3)ccc2O1`, the “% Inhibition” value is on record as -16% and the Z score is 2.27.
The matching figures for `O=C(CC1CCCC1)NC1CCN([C@H]2CCN(CC(F)(F)F)C2)CC1`: 2% and -0.28.
The matching figures for `CCOc1ccc(C(N)=O)cc1Br`: 36% and -5.17.
With `O=C(O)CCn1c(=O)cc(C(F)(F)F)c2cn(C3CCCC3)nc21`, the “% Inhibition” value is -5% and the Z score is reported as 0.53.
Turning to `CO[C@@H](C)c1nc(-c2cccc3c2ccn3C)nn1CC(C)(C)O`, the “% Inhibition” value was -13% and the Z score is recorded as 1.62.
The matching figures for `CCCN(CC1CC1)C(=O)Cc1ccc(S(N)(=O)=O)s1`: -6% and 0.58.
Turning to `Cc1nc2c(c(Oc3ccc(NS(C)(=O)=O)nc3)n1)CCCC2`, the “% Inhibition” value is -10% and the Z score was 0.84.
The matching figures for `O=C(Nc1ccon1)c1ccnc(OCC2CC2)c1`: -16% and 3.1.
The matching figures for `Cc1ncoc1C(=O)N1CCCCC[C@H]1c1noc(C(C)C)n1`: -5% and 0.63.
The matching figures for `Cc1ccn(CC(=O)N2CCCCCCC2)c(=O)c1`: -1% and 0.15.
With `CCC[C@H](C)N(C)C(=O)NCc1nnc2n1CCC2`, the “% Inhibition” value is recorded as -15% and the Z score worked out at 1.28.
The matching figures for `COc1ccc(/C=C\[C@@]23N(Cc4ccccc4)C(=O)CN2c2ccccc2C3(C)C)cc1`: -7% and 0.88.
The matching figures for `CN(Cc1ccc(Cl)s1)C(=O)CN(C)C1CC[S+]([O-])CC1` (stereo not drawn): -15% and 2.03.
